Reference: article PMC11472058, “Trinucleotide cap analogs with triphosphate chain modifications: synthesis, properties, and evaluation as mRNA capping reagents” (Nucleic Acids Research, 2024)
Read-outs that look alike come from different tables or passages of the source. Marks after values point to notes of the source that are not given here.

How the values were obtained:
[1] = molecular target: T1, human eIF4E1a (Homo sapiens, UniProt P06730); assay: Fluorescence quenching titration (FQT) binding assay with eIF4E; conditions: 20 °C, pH 7.2, average of triplicates ± SD, read-out: heIF4E1a KD
T1 construct: made in house; host or cells: E. coli Rosetta 2 (DE3)pLysS
Method: The human eIF4E1a protein was expressed without affinity tag in E. coli Rosseta 2 (DE3)pLysS strain (Novagen) under conditions leading to accumulation of the produced protein in inclusion bodies ([48]). The protein was extracted from inclusion bodies with buffer containing 6 M guanidine hydrochloride, refolded by one-step dialysis against 50 mM HEPES/KOH (pH 7.2), 100 mM KCl, 0.5 mM EDTA, 2 mM DTT, and purified by ion exchange chromatography on HiTrap SP HP 5 ml column (GE Healthcare) using salts gradient. Finally, protein was filtered using Ultrafree MC-HV Centrifugal PVDF filters with 0.45 μm membrane pore (Millipore) to remove protein aggregates and its concentration was determined spectrophotometrically assuming the theoretical extinction coefficient ϵ280nm = 52 940 L mol^−1cm^−1—calculated from amino acid composition using algorithm on ExPASy Server.
Fluorescence titration measurements were carried out on a LS-55 spectrofluorometer (Perkin Elmer Co., Norwalk, CT, USA) in a quartz semi-micro cuvette (Hellma, Germany) with optical lengths 4 mm and 10 mm for absorption and emission, respectively, which was thermostated at 20.0 ± 0.2 °C. The titrations were performed in 50 mM Hepes/KOH pH 7.2, 100 mM KCl, 0.5 mM EDTA and 1 mM DTT by adding 1 μl aliquots of increasing concentrations of the cap solutions to 1.4 ml of 0.1 μM eIF4E1a solution. The eIF4E1a fluorescence was excited at 280 nm and the fluorescence intensity was monitored at a single wavelength 340 nm. The measured fluorescence intensities were corrected for dilution (<4%) and for the inner filter effect. Association equilibrium constants (Kas) were obtained by fitting the theoretical curve for fluorescence intensity (F) upon total concentration of cap analogs ([L]) to the titration data according to the equation: […]
with the concentration of the cap analogs–eIF4E1a complex [cx] given by:
where Δϕ stands for the difference between the fluorescence efficiencies of the apo- and cap analog bound proteins; ϕlig-free is the fluorescence efficiency of the free cap analog; F(0) is the initial fluorescence, and Pact is the total concentration of the active protein ([49]). The final KAS values were calculated as a weighted average from three independent titrations and represented as the KD values. Numerical least-squares nonlinear regression analysis was performed using ORIGIN 2021 from Microcal Software Inc., USA.
Recognition of the mRNA 5′ cap by translation initiation factor 4E (eIF4E) is considered to be the rate-limiting step for the entire translation process ([63],[64]), therefore we investigated the affinity of novel trinucleotide cap analogs to the canonical human eIF4E1a protein by fluorescence quenching titration (FQT; Table 1 column 1, Figure 3) ([65]). As a reference, we determined the dissociation constant between heIF4E1a and the trinucleotide cap-1 structure m^7GpppAmpG, which was equal to 42 nM and very close to the analogous value previously determined for mouse Δ27NeIF4E (46 nM) ([12]). In the case of all modifications tested, the KD values for cap-heIF4E1a complexes are consistent with the results previously obtained for dinucleotide counterparts and murine eIF4E protein, although the magnitude of the modification effect is generally lower. The most tightly bound tetraphosphate analogs (compounds 10–12) show KD values of 6–7 nM, which means that their affinity is about 6-fold higher compared to the triphosphate counterparts. The affinities decrease upon CH2 or CCl2 modification of the tetraphosphate bridge (compounds 13–16), but they are still 4–5 times higher than for the triphosphate analogs with the same adenosine methylation pattern.

[2] = molecular target: T2, Human Dcp2 (Homo sapiens, UniProt Q8IU60); assay: RNA decapping assay with recombinant hDcp2; type: biochemical; conditions: fraction of decapped RNA after 30 min of incubation with hDcp2, 27-nt RNA capped with the analog, 37 °C; triplicates ± SD
T2 construct: made in house; host or cells: E. coli
Method: Human Dcp2 was expressed in E. coli and purified as described previously ([52]). Short 27 nt-capped RNAs (24.2 ng) were diluted with decapping buffer (50 mM Tris–HCl pH 8.0, 50 mM NH4Cl, 0.01% NP-40, 1 mM DTT, 5 mM MgCl2 and 2 mM MnCl2; 2.9 μl of freshly prepared 10 × Buffer) and the final volume was adjusted to 29 μl with ultrapure RNase free water. 4.2 ng (5 μl) of the solution was taken out as time zero reference and diluted with 5 μl loading dye (5 M urea, 44% formamide, 20 mM EDTA, 0.03% bromophenol blue, 0.03% xylene cyanol). The remaining RNAs (20 ng/24 μl) were subjected to 10 nM hDcp2 (250 nM, 1 μl) and the mixtures were incubated at 37°C for 1 h. At defined time points (5, 15, 30 and 60 min), 4 ng of RNA (5 μl) were taken out and the reactions were quenched by adding an equal volume of loading dye. RNAs were resolved electrophoretically on denaturing 15% acrylamide:bisacrylamide 19:1/7 M urea/1 × TBE gel, stained with SYBR Gold (Invitrogen) and visualized using a Typhoon FLA 9500 (GE Healthcare). The decapping progress was determined for each time point by densitometry analysis of the gels, as a ratio between the intensity of the band corresponding to capped RNA and the sum of the intensity of bands from capped and uncapped RNAs. The percentages of remaining capped RNA were then plotted as a function of time.
The RNAs used to determine the capping efficiencies were also useful to study the susceptibility of capped RNA to decapping by hDcp2, the catalytic subunit of the major human mRNA decapping complex Dcp1/Dcp2, which releases m^7GDP and 5′-monophosphorylated RNA (in this case the 26-nt pApG-RNA24; Figure 4C). The progress of decapping at different time points (5, 15, 30 and 60 min) was monitored by HR-PAGE followed by densitometric analysis of the gels (Figure 4C, triplicates of gels are shown in Supplementary Figure S2), and the fraction of remaining capped RNA (27-nt) was plotted as a function of time (Figure 4D-G). […] For better visualization, the data of modified capped RNAs were grouped according to the type of modification present at the 5′ end and presented in separate graphs (Figure 4E–G). To quantify the relative susceptibility to hDcp2, we compared the decapping levels at the 30 min time point (Table 1). For RNAs capped with β-S-triphosphate analogs (1–6, Figure 4E, Table 1), we observed a significant difference in susceptibility to hDcp2 between RP and SP isomers, independent of the methylation pattern.

[3] = molecular target: T3, T7 RNA polymerase (Escherichia phage T7, UniProt P00573); assay: Capping efficiency of short RNA in in vitro transcription (co-transcriptional capping); type: biochemical; conditions: short RNA (27 nt after trimming), Φ6.5 promoter, densitometry of PAGE; average of triplicates ± SD
T3 construct: 6xHis (N); made in house; host or cells: E. coli BL21 (DE3) RIL

[4] = molecular target: T3, T7 RNA polymerase; set-up: method as in Sikorski et al. ([12]); conditions: reference trinucleotides; ref Sikorski et al. ([12]); cited from earlier work
[5] = molecular target: mouse Δ27NeIF4E; set-up: method as in PMID 31984425; conditions: previously determined, read-out: dissociation constant (KD); cited from earlier work
[6] = system: JAWS II cells; conditions: JAWS II cell line, GLuc mRNA
[7] = system: A549 cells; conditions: A549 cell line, GLuc mRNA

T1 sequence (P06730 whole entry): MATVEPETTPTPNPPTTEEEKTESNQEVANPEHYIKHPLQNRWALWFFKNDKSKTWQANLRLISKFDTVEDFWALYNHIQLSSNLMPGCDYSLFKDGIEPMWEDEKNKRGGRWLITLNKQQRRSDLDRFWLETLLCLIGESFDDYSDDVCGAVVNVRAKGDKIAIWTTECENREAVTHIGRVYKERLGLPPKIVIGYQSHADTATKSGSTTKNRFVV
T3 sequence (P00573 whole entry): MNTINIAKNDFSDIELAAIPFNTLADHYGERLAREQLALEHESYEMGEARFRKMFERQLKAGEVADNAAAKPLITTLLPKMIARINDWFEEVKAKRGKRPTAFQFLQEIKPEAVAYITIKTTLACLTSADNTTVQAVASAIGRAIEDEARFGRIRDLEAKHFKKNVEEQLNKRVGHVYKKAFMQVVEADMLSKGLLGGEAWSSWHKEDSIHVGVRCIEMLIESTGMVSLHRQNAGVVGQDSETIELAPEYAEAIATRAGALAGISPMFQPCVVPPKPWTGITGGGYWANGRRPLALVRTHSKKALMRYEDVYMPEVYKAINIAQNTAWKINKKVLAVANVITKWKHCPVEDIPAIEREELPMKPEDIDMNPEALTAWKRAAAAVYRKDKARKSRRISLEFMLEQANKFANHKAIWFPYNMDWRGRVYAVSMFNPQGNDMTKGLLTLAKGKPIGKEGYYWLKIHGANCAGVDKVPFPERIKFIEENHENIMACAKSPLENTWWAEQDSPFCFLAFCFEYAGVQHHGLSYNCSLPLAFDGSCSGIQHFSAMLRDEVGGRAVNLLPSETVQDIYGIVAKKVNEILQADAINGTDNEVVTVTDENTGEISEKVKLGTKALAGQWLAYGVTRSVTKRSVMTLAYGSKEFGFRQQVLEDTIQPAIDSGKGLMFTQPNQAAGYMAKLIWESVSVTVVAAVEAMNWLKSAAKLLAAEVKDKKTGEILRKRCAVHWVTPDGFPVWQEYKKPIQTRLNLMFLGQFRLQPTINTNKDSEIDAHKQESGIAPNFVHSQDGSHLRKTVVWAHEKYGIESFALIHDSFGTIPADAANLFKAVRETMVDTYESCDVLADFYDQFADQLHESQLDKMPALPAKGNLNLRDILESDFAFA

Compound	Kd [1] [nM]	Susceptibility to hDcp2 (@30 min) [2]	Capping efficiency [3] [%]	Capping efficiency [4] [% ^c]	Kd [5] [nM]	fold more protein than ARCA-capped RNA [6]	fold more protein than ARCA-capped RNA [7]
C[n+]1cn([C@@H]2O[C@H](COP(=O)(O)OP(=O)(O)OP(=O)([O-])OP(=O)(O)OC[C@H]3O[C@@H](n4cnc5c(N)ncnc54)[C@H](O)[C@@H]3OP(=O)(O)OC[C@H]3O[C@@H](n4cnc5c(=O)[nH]c(N)nc54)[C@H](O)[C@@H]3O)[C@@H](O)[C@H]2O)c2nc(N)nc(O)c21 [Compound 10, m^7GppppApG]	5.9 ± 0.2	0.65 ± 0.09	86 ± 2	–	–	–	–
CO[C@@H]1[C@H](OP(=O)(O)OC[C@H]2O[C@@H](n3cnc4c(=O)[nH]c(N)nc43)[C@H](O)[C@@H]2O)[C@@H](COP(=O)(O)OP(=O)([O-])OP(=O)(O)OP(=O)(O)OC[C@H]2O[C@@H](n3c[n+](C)c4c(O)nc(N)nc43)[C@H](O)[C@@H]2O)O[C@H]1n1cnc2c(N)ncnc21 [Compound 11, m^7GppppAmpG]	7.2 ± 0.3	0.87 ± 0.05	86 ± 2	–	–	–	–
CNc1ncnc2c1ncn2[C@@H]1O[C@H](COP(=O)(O)OP(=O)([O-])C(Cl)(Cl)P(=O)(O)OP(=O)(O)OC[C@H]2O[C@@H](n3c[n+](C)c4c(O)nc(N)nc43)[C@H](O)[C@@H]2O)[C@@H](OP(=O)(O)OC[C@H]2O[C@@H](n3cnc4c(=O)[nH]c(N)nc43)[C@H](O)[C@@H]2O)[C@H]1OC [Compound 15, m^7GppCCl2pp^m6AmpG]	10.2 ± 0.3	0.03 ± 0.00	74 ± 14	–	–	–	–
m^7Gppp^m6AmpG [reference compound]	46.4 ± 0.6	–	–	75	–	–	–
CO[C@@H]1[C@H](OP(=O)(O)OC[C@H]2O[C@@H](n3cnc4c(=O)[nH]c(N)nc43)[C@H](O)[C@@H]2O)[C@@H](COP(=O)(O)OP(=O)([O-])OP(=O)(O)OC[C@H]2O[C@@H](n3c[n+](C)c4c(O)nc(N)nc43)[C@H](O)[C@@H]2O)O[C@H]1n1cnc2c(N)ncnc21 [m^7GpppAmpG, reference compound]	42	–	–	90	46	approximately 4 fold	approximately 2 fold
CO[C@@H]1[C@H](OP(=O)(O)OC[C@H]2O[C@@H](n3cnc4c(=O)[nH]c(N)nc43)[C@H](O)[C@@H]2O)[C@@H](COP(=O)(O)OP(=O)([O-])C(Cl)(Cl)P(=O)(O)OP(=O)(O)OC[C@H]2O[C@@H](n3c[n+](C)c4c(O)nc(N)nc43)[C@H](O)[C@@H]2O)O[C@H]1n1cnc2c(N)ncnc21 [Compound 14, m^7GppCCl2ppAmpG]	9.1 ± 0.5	0.01 ± 0.00	90 ± 4	–	–	–	–
C[n+]1cn([C@@H]2O[C@H](COP(=O)(O)OP(=O)(O)C(Cl)(Cl)P(=O)([O-])OP(=O)(O)OC[C@H]3O[C@@H](n4cnc5c(N)ncnc54)[C@H](O)[C@@H]3OP(=O)(O)OC[C@H]3O[C@@H](n4cnc5c(=O)[nH]c(N)nc54)[C@H](O)[C@@H]3O)[C@@H](O)[C@H]2O)c2nc(N)nc(O)c21 [Compound 13, m^7GppCCl2ppApG]	6.8 ± 0.2	0.03 ± 0.02	89 ± 5	–	–	–	–
CNc1ncnc2c1ncn2[C@@H]1O[C@H](COP(=O)(O)OP(=O)([O-])OP(=O)(O)OP(=O)(O)OC[C@H]2O[C@@H](n3c[n+](C)c4c(O)nc(N)nc43)[C@H](O)[C@@H]2O)[C@@H](OP(=O)(O)OC[C@H]2O[C@@H](n3cnc4c(=O)[nH]c(N)nc43)[C@H](O)[C@@H]2O)[C@H]1OC [Compound 12, m^7Gpppp^m6AmpG]	7.3 ± 0.3	0.40 ± 0.11	65 ± 15	–	–	–	–
m^7GpppApG [reference compound]	35.5 ± 1.7	–	–	88	–	–	–
